# Assay results as given in PubChem BioAssay AID493208 (National Center for Advancing Translational Sciences (NCATS), 2011).
# About 340 (0.77%) of roughly 44,000 compounds were called active. Roughly 5% stayed inconclusive and do not appear here. The call rests on the fitted dose curve; in most records, active means well fitted inhibition curve with a large enough effect; inconclusive means small, poorly fitted or top-dose-only effect; inactive means flat fitted curve, though single readings scatter. The list shows a part of the results.
# Assay: Acumen qHTS Assay for Inhibitors of the mTORC1 Signaling Pathway in MEF (Tsc2-/-, p53-/-) Cells: Sytravon;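 further: plate controls were DMSO for no effect and rapamycin for full effect; nearly all actives have a fitted effect of over 50% in size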
# Settings: phospho-rpS6 immunofluorescence/PI, 24 h; series mostly up to 38.3 µM; activity change, negative = inhibition: at the top concentration
# Procedure, shortened: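 Tsc2-/-, p53-/- mouse embryonic fibroblasts (empty-vector line) exposed to compound 24 hrs at 37 C, fixed, immunostained for phospho-rpS6 and counterstained with propidium iodide. Acumen laser scanning gives % positive cells from Alexa 488/PI ratio, thresholded using 7.5 nM rapamycin; PI count gives viability.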
row,Structure (SMILES),"activity change, negative = inhibition"
1,CCOC(=O)c1cc(-c2ccc(C)cc2)n(CCC(=O)Nc2ccc(OC)c(OC)c2)c1C,inactive: -11.9%
2,CCCCCN1C(C(=O)c2ccccc2)=C(NC(=O)c2ccccc2Cl)c2ccccc2S1(=O)=O,inactive: -1.63%
3,COc1ccc(CCNC(=O)c2ccc3c(c2)N(Cc2ccc(Cl)cc2)CCS3)c(OC)c1,inactive: -17.7%
4,COC(=O)c1c(NC(=O)COc2cc(C)ccc2C(C)C)sc2c1CCC(C)C2 (stereo unspecified),inactive: 8.57%
5,CC(=O)c1ccc(N2CCN(S(=O)(=O)c3ccc(-c4cc(C)no4)s3)CC2)cc1,inactive: 6.5%
6,Cc1cc(C)c(S(=O)(=O)n2cnc(C)c2)c(C)c1,inactive: -1.82%
7,COc1ccc(-c2nc3n(n2)C(=O)CC(c2ccc(Cl)cc2)S3)cc1 (stereo unspecified),inactive: 1.25%
8,Cc1ccc(-c2ccc(=O)n(CC(=O)NCc3ccc(F)cc3)n2)cc1,inactive: -9.36%
9,CCC(C)NC(=O)C1CCC(CNS(=O)(=O)c2ccc(Cl)cc2)CC1 (stereo unspecified),inactive: 1.66%
10,CCOC(=O)C1CCN(S(=O)(=O)c2ccc3c(c2)NC(=O)C(C)C(=O)N3)CC1 (stereo unspecified),inactive: -28.5%
11,CCOC(=O)c1ccc(NC(=O)CC2NCCNC2=O)cc1 (stereo unspecified),inactive: 11.8%
12,CCn1c2ccccc2c2cc(NC(=O)COc3ccc(C)c(C)c3)ccc21,inactive: 2.76%
13,COC(=O)c1ccc(NC(=O)C2CCN(C(=O)c3ccc(F)cc3)CC2)cc1,inactive: -26.9%
14,CC1=C(C(=O)Nc2ccccc2C)C(c2cccnc2)n2nc(SCc3ccccc3F)nc2N1 (stereo unspecified),inactive: 0%
15,CCOc1cc(C(=O)Nc2ccc(-c3nc4ncccc4o3)cc2C)cc(OCC)c1OCC,inactive: -8.68%
16,CCS(=O)(=O)CCSc1nc(-c2ccc(Br)cc2)cc(-c2ccccc2)c1C#N,inactive: 3.14%
17,O=C(O)CCc1ccc(-c2ccccc2)n1CC(=O)Nc1ccccc1C(F)(F)F,inactive: 6.36%
18,COc1ccccc1CNC(=O)CCCCn1c(=O)c2ccccc2n(CC(=O)Nc2cc(Cl)ccc2C)c1=O,inactive: -19.5%
19,Cc1ccccc1Nc1nn2c(=O)c3ccc(C(=O)N4CCCC(C)C4)cc3nc2s1 (stereo unspecified),inactive: -6.25%
20,COc1ccc2c(c1)c1c(c(=O)n(-c3ccccc3C)c(=O)n1CC(=O)Nc1c(C)cccc1C)n2C,inactive: 3.32%
21,O=c1c2[nH]c3ccccc3c2nc(SCc2cccc(F)c2)n1-c1ccccc1,inactive: -2.31%

row,Structure (SMILES),"activity change, negative = inhibition"
1,Cc1ccc(NC(=O)CCC(=O)N2Cc3ccccc3Oc3ncccc32)cc1,inactive: 1.43%
2,COc1ccc(NC(=O)Cn2c(SCc3ccc(C)cc3)nc3cccnc32)c(OC)c1,inactive: -3.88%
3,COc1cccc(OC)c1C(=O)Nc1ccc2c(c1)N(C(C)=O)CCC2,inactive: 6.56%
4,O=C(CCc1ccccc1)NC1CC(=O)N(c2ccccc2)C1 (stereo unspecified),inactive: -3.86%
5,O=C1CC(c2ccc(Cl)cc2)Sc2nc(-c3ccc(F)cc3)nn21 (stereo unspecified),inactive: -9.39%
6,CCOc1ccc(CNS(=O)(=O)c2cc(-c3cc(C)no3)ccc2C)cc1OC,inactive: 2.72%
7,COc1ccc(-c2cnc(C)o2)cc1S(=O)(=O)Nc1ccc(C)c(N(C)C)c1,inactive: 0%
8,Cn1c(=O)[nH]c2cc(-c3noc(-c4ccc(F)cc4)n3)ccc21,inactive: -4.11%
9,CCn1c(=O)cc(SCC(=O)NCCc2ccc(OC)cc2OC)c2ccccc21,inactive: 0.524%
10,COCCCNC(=O)CSc1nc(-c2ccccc2)[nH]c1-c1ccc(C)cc1,inactive: -7.98%
11,CCc1ccc(-n2c(=O)c3c4c(sc3n(CC(=O)NC(C)CC)c2=O)CCCC4)cc1 (stereo unspecified),inactive: -6.32%
12,CCCn1c(=O)c2sccc2n2c(CCCC(=O)Nc3cccc(CC)c3)nnc12,inactive: -5.73%
13,CCc1cnc2c(c1SCC(=O)Nc1ccc(C)cc1C)c(=O)n(C)c(=O)n2C,inactive: -6.6%
14,CC(C)c1ccc(NC(=O)c2ccc(NC(=O)CCS(=O)(=O)c3cccs3)cc2)cc1,inactive: -7.24%
15,Cc1ccc(CCNc2nc3c(S(=O)(=O)c4ccc(C)cc4)nnn3c3ccsc23)cc1,inactive: -2.2%
16,Cc1ccc(-n2ncc3c(NCCCc4ccccc4)ncnc32)cc1C,inactive: 7.87%
17,COc1cc(CNC(=O)c2cc3n(n2)CCCN(Cc2ccc(C)cc2)C3=O)cc(OC)c1OC,inactive: 5.84%
18,Cc1ccc(-c2c3c(=O)n(C)c(=O)n(C)c3c3c(C(F)(F)F)nc4ccccc4n23)cc1,inactive: 1.56%
19,Cc1c(NC(=O)c2sc3c([N+](=O)[O-])cccc3c2Cl)cccc1-c1nc2ccccc2o1,inactive: -1.81%
20,CCS(=O)(=O)N1CC(=O)N(c2cccc(C)c2C)C(C)(C(=O)NC2CCCCC2)C1 (stereo unspecified),inactive: 0.732%
21,CCOC(=O)c1[nH]c(C)c(CCC(=O)Nc2ccc(N(CC)CC)cc2C)c1C,inactive: -18.3%

row,Structure (SMILES),"activity change, negative = inhibition"
1,Cc1nc(-c2ccc(F)cc2)sc1CCNC(=O)c1ccco1,inactive: 2.27%
2,CCc1ccc(CNC(=O)CCN2C(=O)COc3ccccc32)cc1,inactive: 1.35%
3,Cc1cc(C)cc(NC(=O)Cn2nnc(C(=O)Nc3cc(C)cc(C)c3)c2N)c1,inactive: -14.6%
4,COc1cc(NC(=O)Cn2c(C)cc3ccccc3c2=O)cc(OC)c1OC,inactive: -9.39%
5,COc1cc(OC)cc(C(=O)Nc2c(C(=O)Nc3ccc(F)cc3)oc3ccccc23)c1,inactive: 0.311%
6,CCOC(=O)c1cc(-c2ccccc2)n(CCCC(=O)Nc2cccc(Cl)c2C)c1C,inactive: 0.689%
7,CSc1ccc(CCNC(=O)C(C)n2c(C)c3cnn(-c4ccccc4)c(=O)c3c2C)cc1 (stereo unspecified),inactive: -0.373%
8,COC(=O)c1cc2oc(C)cc2n1CC(=O)Nc1ccc(C)cc1C,inactive: -3.41%
9,O=C(Cn1c(=O)n(Cc2ccccc2)c(=O)c2oc3ccccc3c21)Nc1ccc(Cl)cc1,inactive: -1.22%
10,Cc1ccc(/C=C/c2onc(C)c2S(=O)(=O)N2CCC(C(=O)N3CCOc4ccccc43)CC2)cc1,inactive: -14.8%
11,CC(=O)Nc1cc(C(=O)NCc2ccc(F)cc2Cl)ccc1Sc1ccc(Cl)cc1,inactive: 0%
12,Oc1ccc(Cl)cc1Nc1nc2ccccc2n2cnnc12,inactive: -2.33%
13,CCOC(=O)c1ccc(NC(=O)Cc2ccc(-n3c(CC)nc4cccnc43)cc2)cc1,inactive: -9.69%
14,O=C(CC(c1ccccc1)c1cc(Br)ccc1O)NCC1(c2ccccc2)CCCC1 (stereo unspecified),inactive: -13.1%
15,COc1ccccc1N(Cc1cc2cccc(C)c2[nH]c1=O)C(=O)c1cccc(Cl)c1,inactive: 2.19%
16,NC(=O)c1cc(S(=O)(=O)N2CCCCC2)cs1,inactive: 2.83%
17,COc1ccc(CCn2c3c(c(=O)[nH]c2=O)C(NC(=O)c2ccccc2)(C(F)(F)F)C(=O)N3)cc1OC (stereo unspecified),inactive: -0.542%
18,CCNC(=O)CC1C(=O)N(c2ccc(C)cc2)C(=O)N1Cc1ccc(C)cc1 (stereo unspecified),inactive: 1.12%
19,O=C(CCS(=O)(=O)c1ccc2c(c1)NC(=O)CO2)Nc1cccc(C(F)(F)F)c1,inactive: 8.45%
